The whole screen tested about 310,000 compounds, of which about 14,000 (4.5%) showed an effect of 50% or more. Effects have a minus sign here. Some of the results follow.
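Further: peak tail current of the secondary pulse compared with the same well before compound.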

This test deals with human ether-à-go-go-related gene (hERG) potassium channel (human, UniProt Q12809). In words: primary screen, population patch clamp on CHO cells stably expressing hERG.
Sequence of human ether-à-go-go-related gene (hERG) potassium channel (Q12809 whole entry, looked up): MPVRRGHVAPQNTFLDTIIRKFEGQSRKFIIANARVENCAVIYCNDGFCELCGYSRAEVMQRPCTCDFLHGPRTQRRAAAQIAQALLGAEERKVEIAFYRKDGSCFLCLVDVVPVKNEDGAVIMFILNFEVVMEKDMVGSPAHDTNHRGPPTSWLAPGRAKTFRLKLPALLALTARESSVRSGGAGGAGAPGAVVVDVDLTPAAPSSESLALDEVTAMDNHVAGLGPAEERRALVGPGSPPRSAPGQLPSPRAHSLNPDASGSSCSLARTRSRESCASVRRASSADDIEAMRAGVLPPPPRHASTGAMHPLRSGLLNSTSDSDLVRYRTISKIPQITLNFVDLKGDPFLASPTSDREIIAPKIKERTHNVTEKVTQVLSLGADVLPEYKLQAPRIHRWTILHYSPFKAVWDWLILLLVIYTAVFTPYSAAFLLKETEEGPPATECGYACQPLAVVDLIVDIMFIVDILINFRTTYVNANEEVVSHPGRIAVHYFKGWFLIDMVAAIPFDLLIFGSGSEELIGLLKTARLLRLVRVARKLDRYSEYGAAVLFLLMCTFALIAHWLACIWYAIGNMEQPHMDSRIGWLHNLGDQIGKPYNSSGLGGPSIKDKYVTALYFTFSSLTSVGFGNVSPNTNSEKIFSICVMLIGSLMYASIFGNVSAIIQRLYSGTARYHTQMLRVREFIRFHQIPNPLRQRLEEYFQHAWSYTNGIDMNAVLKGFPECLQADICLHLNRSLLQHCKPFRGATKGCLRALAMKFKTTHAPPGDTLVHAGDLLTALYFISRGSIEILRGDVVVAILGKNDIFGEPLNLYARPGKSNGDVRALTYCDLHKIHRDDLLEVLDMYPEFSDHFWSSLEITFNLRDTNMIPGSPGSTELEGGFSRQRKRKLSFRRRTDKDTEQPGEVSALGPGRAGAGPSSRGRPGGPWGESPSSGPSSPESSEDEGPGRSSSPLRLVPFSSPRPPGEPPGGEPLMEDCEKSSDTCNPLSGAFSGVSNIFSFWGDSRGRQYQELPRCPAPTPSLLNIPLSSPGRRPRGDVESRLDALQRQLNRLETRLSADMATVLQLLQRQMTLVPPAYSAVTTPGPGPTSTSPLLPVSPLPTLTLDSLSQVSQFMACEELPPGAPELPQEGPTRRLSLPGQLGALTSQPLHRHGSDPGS
With `CC[N+]1(CC)CC2=Cc3ccccc3CC2C1.[Br-]` (stereo not shown), the “hERG current change (%, negative = inhibition) at 10uM” value is given as -0.332%.

Turning to `Cc1ccc(NC(=O)CS(=O)CC(=O)N(C(C)C(=O)NC2CCCCC2)C(C)(C)C)cc1` (stereo not shown), the “hERG current change (%, negative = inhibition) at 10uM” value was -5.73%.

As to `C=CCOC(=O)C1=C[C@H](c2csc3ccccc23)C[C@H](OCCCCO)O1`, the “hERG current change (%, negative = inhibition) at 10uM” value was -21.9%.

For `O=C1CC(N2CCN(Cc3ccc4c(c3)OCO4)CC2)C(=O)N1c1ccccc1` (stereo not shown), the “hERG current change (%, negative = inhibition) at 10uM” value is listed as -5.99%.

In the case of `COc1ccc(S(=O)(=O)NCC(=O)NC2CC2)cc1OC`, the “hERG current change (%, negative = inhibition) at 10uM” value came to 15.2%.

As to `CCSc1nnc(NC(=O)Cc2ccc(OC)cc2)s1`, the “hERG current change (%, negative = inhibition) at 10uM” value was 2.81%.

Take `O=C(CCNC(=O)c1ccco1)Nc1cccc(C(F)(F)F)c1`: the “hERG current change (%, negative = inhibition) at 10uM” value was -3.82%.

Consider `CCOC(=O)C1CCCN(C(=O)c2ccccc2NC(C)=O)C1` (stereo not shown), for which the “hERG current change (%, negative = inhibition) at 10uM” value stood at 14.6%.

Regarding `O=C(CSc1nnc(CNC(=O)c2ccccc2)o1)c1ccccc1`, the “hERG current change (%, negative = inhibition) at 10uM” value is given as 2.11%.

On to `CN1C(=O)CC(N2CCC(c3nc4ccccc4[nH]3)CC2)C1=O` (stereo not shown), for which the “hERG current change (%, negative = inhibition) at 10uM” value is 0.784%.

Turning to `Cn1cc(Cl)c(C(=O)NC(=S)Nc2sc3c(c2C#N)CCCCC3)n1`, the “hERG current change (%, negative = inhibition) at 10uM” value turned out to be 9.46%.

Regarding `CCOC(=O)C1CCCN(C(=O)c2cc(COc3ccc(C)nc3)on2)C1` (stereo not shown), the “hERG current change (%, negative = inhibition) at 10uM” value is reported as -7.13%.

Consider `Cn1c(N)c(C(=O)COC(=O)COc2ccc(C#N)cc2)c(=O)n(C)c1=O`, for which the “hERG current change (%, negative = inhibition) at 10uM” value was -24%.

`Nc1c(C(=O)N2CCCCCC2)oc2ccccc12`: the “hERG current change (%, negative = inhibition) at 10uM” value is -10.5%.

Regarding `O=C(O)c1ccc2c(c1)C(=O)N(CCc1c[nH]c3ccccc13)C2=O`, the “hERG current change (%, negative = inhibition) at 10uM” value was 15%.

Regarding `N#Cc1cnn(-c2cccc(Cl)c2)c1N`, the “hERG current change (%, negative = inhibition) at 10uM” value is 11.6%.

Take `CCCC(C(=O)NCc1ccco1)N(Cc1ccco1)C(=O)CNS(=O)(=O)c1ccccc1` (stereo not shown): the “hERG current change (%, negative = inhibition) at 10uM” value is 1.15%.

With `CCC(C)(C)NC(=O)CN(Cc1ccc2c(c1)OCO2)C(=O)CCC(=O)Nc1cc(C)ccn1`, the “hERG current change (%, negative = inhibition) at 10uM” value is on record as -29.4%.

As to `O=S(=O)(Cc1ccccc1)N1CCC(N2CCN(c3ccccc3)CC2)CC1`, the “hERG current change (%, negative = inhibition) at 10uM” value was -22.7%.

As to `CC[C@H](C)C(C(=O)N1CCN(C(=O)OC(C)(C)C)CC1)n1cc(C(CO)NC(=O)OC(C)(C)C)nn1` (stereo partly shown), the “hERG current change (%, negative = inhibition) at 10uM” value amounted to 7.88%.

Consider `CC1(C)COCN1C(=O)c1ccc(Cl)c(Cl)c1`, for which the “hERG current change (%, negative = inhibition) at 10uM” value was determined as 13.6%.

Take `CCc1ccc(C(=O)NNc2ccccc2F)cc1`: the “hERG current change (%, negative = inhibition) at 10uM” value is listed as -7.54%.

For the compound `CCCOC(=O)CN1C(=O)c2ccc(C(=O)OCCC)cc2C1=O`, the “hERG current change (%, negative = inhibition) at 10uM” value is reported as -16.2%.

Turning to `OCCc1c[nH]c2cc(F)ccc12`, the “hERG current change (%, negative = inhibition) at 10uM” value is listed as 7.46%.

In the case of `O=C(O)/C(=C\c1cccs1)c1ccc(F)cc1`, the “hERG current change (%, negative = inhibition) at 10uM” value was 6.19%.

The values are drawn from paper PMC4336329 (PLoS ONE, 2015).
